Assay results as given in paper PMC12040169 (PLOS Biology, 2025).
The list shows a part of the results.

tested on: T1, C. trachomatis L2/434/Bu expressing GFP (CTL2-GFP); design: species or system HeLa; C. trachomatis total inclusion area by high-content imaging, normalised to DMSO; details: total inclusion area; 28.5 h, 10 µM; inhibitor
T1 construct: L2/434/Bu GFP intracellular growth in HeLa cells
How it was run: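 Host cell viability was gauged from Hoechst-stained nuclei counts, while chlamydial growth was taken from total inclusion area and inclusion number per well. Cells were fixed and imaged by high-content microscopy once bulk GFP and resorufin fluorescence had been measured.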

Compound | % of control remaining
CCOC(=O)c1c(NC(=O)CSc2nnc3ccccn23)sc2c1CCCCC2 [CBK265685] | 116.559
CC(NCC(=O)N1c2ccccc2NC(=O)CC1C)c1ccc(-c2ccccc2)cc1 (centres unmarked) [CBK295155] | 73.7145
OCCN1CCN(c2ncnc3scc(-c4ccccc4)c23)CC1 [CBK287582] | 115.398
O=C(C[C@@H]1CCNC[C@@H]1Cc1cc(-c2ccccc2)on1)Nc1cccc(O)c1 [CBK289149] | 105.067
CC(=O)N(C)c1nc(-c2cccc(N(C)C)c2)ccc1C(=O)Nc1ccc(C(F)(F)F)cc1 [CBK076623] | 49.0744
COc1ccc2oc(C(=O)NCCN3CCOCC3)c(C)c2c1OC [CBK269913C] | 95.5556
O=C(Nc1ncc(Cl)s1)C1CC(=O)N(C2CC2)C1 (centres unmarked) [CBK175551] | 27.0566
N#Cc1ccccc1/C=N/NC(=O)COc1ccc(-c2cc(-c3ccccc3)c3cc(Cl)ccc3n2)cc1 [CBK263337] | 114.697
COC(=O)c1sccc1NS(=O)(=O)c1ccc2ccccc2c1 [CBK004500] | 83.2439
CCc1nn(CC(=O)NC(C)C)c(=O)c2cc3ccsc3n12 [CBK284131] | 89.2827
Cc1c(S(=O)(=O)Nc2ccc(C(=O)c3ccccc3)cc2)cnn1-c1ccccc1 [CBK051034] | 107.626
CCOC(=O)Nc1ccc2c(c1)N(C(=O)CN(C)C)c1ccccc1S2 [CBK261290C] | 73.6961
COc1ccc(-c2ccc(CCC(=O)O)n2CCc2ccccc2)cc1 [CBK265929] | 60.3693
O=C(C1CCCC1)N1CCCC(c2nccnc2-c2cccc(C(F)(F)F)c2)C1 (centres unmarked) [CBK286221] | 84.6151
COc1ccccc1Cc1cccc(C2CCN(CC(=O)Nc3nccs3)CC2)n1 [CBK286227] | 117.789
O=C(CSc1ccccn1)Nc1ccc2ccccc2c1 [CBK263860] | 105.577
CC(Cc1cccs1)C(=O)N1CCn2cnnc2C1 (centres unmarked) [CBK282109] | 94.0714
O=C(Nc1ccc2ncccc2c1)c1ccc(F)cc1Cl [CBK159796] | 83.423
O=[N+]([O-])c1cc(S(=O)(=O)n2ccc3ccccc32)ccc1N1CCNCC1 [CBK024593C] | 69.3895
Cc1cc(=O)n2ncnc2n1COCCO [CBK262919] | 101.57
Clc1ccc2nc(-c3ccccn3)[nH]c2c1 [CBK000116] | 6.069
COc1ccc(-n2cc(-c3ccc(C(F)(F)F)cc3)nn2)cc1OC [CBK112952] | 80.8102
O=C(NCc1n[nH]c(=O)c2ccccc12)Nc1ccc(F)cc1 [CBK287744] | 118.837
CCc1n[nH]c(C2CN(Cc3nc4c(F)cccc4[nH]3)CCO2)n1 (centres unmarked) [CBK304117] | 24.4681
c1ccc2cc(-c3cn4ccnc4c(Nc4ccc(N5CCOCC5)cc4)n3)ccc2c1 [CBK066359] | 67.6703
CCOC(=O)c1cnc(SC)nc1NCCc1c[nH]cn1 [CBK086623] | 93.0297
O=C(NCc1ccccn1)c1ccc(-n2ccnc2)c(-n2cccc2)c1 [CBK285347] | 111.291

Compound | % of control remaining
O=[N+]([O-])c1ccc(C(O)CNC(=S)Nc2ccccc2)cc1 (centres unmarked) [CBK261086] | 80.9023
O=C(CC1CS(=O)(=O)CC1CC(=O)Nc1cccc(Cl)c1Cl)Nc1cccc(Cl)c1Cl (centres unmarked) [CBK262404] | 108.081
Cc1nn(CC(=O)N(C)Cc2cnccn2)c(=O)c2ccccc12 [CBK304356] | 136.975
Nc1ncc(-c2cccc(F)c2)nc1-c1ccc(C(=O)N2CCOCC2)cc1 [CBK064131] | 90.7932
NC(=O)CN1CCN(CCc2ccccc2)CC1 [CBK126429] | 105.438
CCC(CN1CCN(C)CC1)NC(=O)C1(c2ccc(F)cc2)CC1 (centres unmarked) [CBK282785] | 113.737
CC1(C)CC(NC(=O)C2CCN(S(C)(=O)=O)CC2)c2ccccc2O1 (centres unmarked) [CBK304404] | 76.7101
FC(F)(F)c1cccc(Sc2cccc3ccccc23)n1 [CBK091449] | 75.7372
O=C(N[C@H]1C[C@H]2C(=O)Nc3ccc(-c4ccsc4)cc3C(=O)N2C1)c1ccccc1 [CBK289361] | 85.2246
O=C(Cn1ccc(=O)[nH]c1=O)Nc1ccc(OCC(F)(F)F)cc1 [CBK305879] | 32.8548
Nc1ncc(-c2ccc(C(=O)N3CCOCC3)cc2)cc1C(=O)NCc1c(F)cccc1F [CBK158569] | 90.74
COc1ccc(CNC(=O)C2CCCN(S(C)(=O)=O)C2)cc1OC (centres unmarked) [CBK299830] | 78.0398
CCCC(=O)Nc1ccc(-c2csc(N3CCCC3=O)n2)cc1 [CBK306088] | 56.9738
COc1ccc(Oc2nccnc2N2CCN(Cc3ccc4c(c3)OCO4)CC2)cc1OC [CBK083048T] | 96.7989
O=c1[nH]nc2n1-c1ccccc1OC2 [CBK010583] | 60.8775
CN1CCCC(C(=O)Nc2cnc(-c3cccc(C(F)(F)F)c3)c(-c3cccnc3)n2)C1 (centres unmarked) [CBK036787] | 87.9281
COc1ccc(N2CCN(c3nc(NCCO)nc(OC)n3)CC2)cc1 [CBK265478] | 92.9603
O=C(O)c1cccc(CSc2nnc(Cc3ccccc3)o2)c1 [CBK268060] | 108.116
CC1(C)CC(NCC(O)COc2cc(C(C)(C)C)c(O)c(C(C)(C)C)c2)CC(C)(C)N1 (centres unmarked) [CBK264564] | 104.468
CN1CCC[C@H]1c1nc(-c2ccc(-n3ccnc3)nc2)no1 [CBK288893] | 134.7
Cc1c(C(=O)NCCCN2CCOCC2)oc2c1C(=O)CCC2 [CBK270207] | 100.054
O=C(Cc1ccccc1)NN1C(=O)/C(=C/c2ccccc2C(=O)O)SC1=S [CBK262975] | 100.93
Cc1ncsc1CCOc1cc(NC(C)C)ncn1 [CBK115884] | 98.0726
CC[C@H]1C[N@@]2CC[C@H]1C[C@@H]2CNS(=O)(=O)c1cccc(C#N)c1 [CBK288746] | 99.946
O=C(O)c1ccccc1C1SCCCS1 [CBK016303] | 106.027
O=C(CCc1ccco1)N1CCCCC1c1nc2ccccc2[nH]1 (centres unmarked) [CBK283711] | 97.9929
CCC(CC)C(=O)N(C)c1c(C)nc2ccc(C(=O)N3CCN(S(=O)(=O)CC)CC3)cn12 [CBK146524] | 92.5579

Compound | % of control remaining
O=S(=O)(Nc1nnn[nH]1)c1ccc(N2CCOCC2)nc1 [CBK062385] | 75.7766
Cc1ccc2[nH]c(Nc3nc(C)cc(C)n3)nc2c1 [CBK263634] | 107.905
CN(Cc1ccccc1)c1nccnc1-c1ccc(F)c(Cl)c1 [CBK037997] | 120.953
CCc1nnc(NS(=O)(=O)c2ccc(NCc3cc(Cl)ccc3O)cc2)s1 [CBK200051] | 67.4916
O=C(c1ccccc1F)N1CCCC(c2n[nH]c3ncccc23)C1 (centres unmarked) [CBK282672] | 129.414
Cc1cc(C)c2cc(CNC3CC3)c3nn(C)c(=O)n3c2c1 [CBK283186] | 106.373
CCc1cc(Br)ccc1S(=O)(=O)NCCC#N [CBK044760] | 81.8686
c1cc(-c2nccnc2OC2CCCCC2)ccn1 [CBK106727] | 97.764
NC(=O)NC(CC(=O)N1CCN(c2nccs2)CC1)c1cccc(Br)c1 (centres unmarked) [CBK304548] | 72.8276
CCC(=O)NC(c1ccc(OC)c(OC)c1)c1ccc2cccnc2c1O (centres unmarked) [CBK293926] | 83.0139
Clc1ccc(COc2cccc3c2CCCC3)cn1 [CBK002634] | 90.1426
Cc1ccc(-c2cc(C(=O)NC3CN4CCC3CC4)[nH]n2)o1 (centres unmarked) [CBK283276] | 92.9254
COc1ccc(CCNC(=O)c2cnoc2-c2ccc(C)cc2)cc1 [CBK153731] | 96.5811
CS(=O)(=O)c1ccc(-n2nnnc2CNC2(CO)CCCC2)cc1 [CBK304134] | 27.482
Nc1ncc(-c2ccc(Cl)cc2)c(C2CCCN(C(=O)Cc3c[nH]c4ccccc34)C2)n1 (centres unmarked) [CBK285574] | 86.9012
CC1CCC(N(Cc2nnc(C(C)C)o2)CC2CCCO2)CC1 (centres unmarked) [CBK305169] | 71.9758
CC1CCCCN1C(=O)Cn1cnc2c(Cl)cc(Cl)cc2c1=O (centres unmarked) [CBK306149] | 73.5942
COc1ccccc1CC(C)NC(=O)c1csc(C(C)=O)c1 (centres unmarked) [CBK282517] | 73.6785
Cc1nn(C)cc1-c1cncn1C(C)(C)CN1CCC(C)CC1 [CBK281740] | 114.78
CNC(=O)c1ccc(-c2cccc(Cl)c2Cl)nc1N1CCOCC1 [CBK106215] | 92.1065
N#CCCN(CCC#N)C(=O)CN1C(=O)c2ccccc2C1=O [CBK267100] | 111.842
Clc1ccc(COc2ccnc(N3CCCNCC3)n2)cc1Cl [CBK091550] | 53.0195
COc1ccc(Cn2c(C3CCNCC3)cc3cccnc32)cc1 [CBK285077] | 77.1926
O=C(CCn1c(-c2ccccc2)c(-c2ccccc2)c2ccccc21)N/N=C/c1cccc(O)c1 [CBK262348] | 4.546
O=C(/C=C/c1cn([C@H]2C[C@@H](O)[C@@H](CO)O2)c(=O)[nH]c1=O)ON1C(=O)CCC1=O [CBK201188] | 146.465
COc1cc(CNc2cc(-c3cccc4cccnc34)ncn2)cc(OC)c1OC [CBK091179] | 80.0595
